# Measured values: paper PMC9574860, “Chemical Toolkit for PARK7: Potent, Selective, and High-Throughput” (Journal of Medicinal Chemistry, 2022)
# The campaign covered roughly 7,900 compounds. About 400 (5.1%) showed an effect of 50% or more. This is one part of the list.
# Target: Parkinson's disease protein 7 (PARK7/DJ1) (human, UniProt Q99497)
# Experiment: primary screen, percent inhibition; read as competition with a fluorescent probe by fluorescence polarization; higher = more effect of the substance
# Settings: 100 µM
# Summary of the method: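 Fluorescence-polarization probe displacement (JYQ-107, 20 nM final, 2 h) after 2 h preincubation of PARK7 (0.2 μM final) with each fragment at 100 μM final. Read-out ex/em 480/520 nm; remaining activity derived from FP signal loss relative to reference controls.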
# Chain of Parkinson's disease protein 7 (PARK7/DJ1) (Q99497 whole entry, looked up): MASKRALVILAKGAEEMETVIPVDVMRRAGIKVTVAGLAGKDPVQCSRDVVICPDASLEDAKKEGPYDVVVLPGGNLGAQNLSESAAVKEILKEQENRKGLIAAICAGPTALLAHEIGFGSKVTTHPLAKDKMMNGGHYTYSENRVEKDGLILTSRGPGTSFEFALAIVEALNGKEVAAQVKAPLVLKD
row,SMILES,Inhibition % [%]
1,Cn1cc(C=C2N=C(c3ccc(F)cc3F)OC2=O)cn1,4.3
2,N#Cc1ccc(NCCc2ccc(O)cc2)cn1,7.59
3,Cc1nc(-c2ccco2)nc(S)c1C(=O)O,1.46
4,C=CC(=O)N(C)Cc1cc(Cl)cn1C,14.2
5,O=C(c1ccccc1)N1CCC(CCl)C1 (stereo not shown),2.86
6,NS(=O)(=O)c1cccc(S(=O)(=O)F)c1,94.3
7,Cc1c(Cl)cccc1NC(=O)CCl,11.8
8,C=CC(=O)N1CCC(c2nc(C)no2)CC1,6.69
9,C=CC(=O)NCCC1CCN(C(C)=O)CC1,5.39
10,C=CC(=O)Nc1ccc2sncc2c1,97.4
11,O=S(=O)(F)CCSc1nc2ccccc2o1,70.3
12,CC1(C)CN(C(=O)c2cccnc2S)CCS1(=O)=O,4.61
13,CC(=O)Nc1ccc(OC(=O)N(C)C)cc1,10.8
14,CC1CC(N2CCN(c3cccc(Cl)c3)CC2)C(=O)O1 (stereo not shown),4.34
15,COCCC(Cl)c1ccccc1 (stereo not shown),8.31
16,C=CC(=O)N(c1cccc2cccnc12)C1CCC1,13.1
17,O=C(CCl)Nc1nnc(C2CC2)o1,2.41
18,CN(Cc1ccc(Br)cc1)C(=O)CCl,52.8
19,COC[C@@H]1C[C@H](OC)CN1C(=O)c1c[nH]c(C#N)c1,1.56
20,C=CC(=O)NCCc1ccc(-n2cccn2)cc1,5.22
21,CC(C)CNc1oc(-c2ccccc2)nc1C#N,4.63
22,Cl.O=C(CCl)N1CCN(C2CCS(=O)(=O)C2)CC1 (stereo not shown),11.4
23,CSc1cccc(C#N)n1,8.62
24,CN1CCN(C(=O)CN2CCSC2=O)CC1,10.4
25,Cc1cc(C(=O)CCl)c(C)n1C1CCS(=O)(=O)C1 (stereo not shown),35.7

row,SMILES,Inhibition % [%]
1,C=CC(=O)NCc1nc2ccccc2s1,-0.0503
2,CC1(C)OB(c2ccc3ccoc3c2Cl)OC1(C)C,5.49
3,C=CC(=O)N1CC(c2ccccc2)(C(C)C)C1,4
4,N#Cc1cc(O)ncn1,8.87
5,CN(CC(=O)Nc1c(Cl)cccc1Cl)C(=O)CCl,7.36
6,C=CC(=O)N1CCc2cc(F)ccc2C1,10.6
7,O=C(CCl)Nc1cc(Cl)ccc1C(=O)O,47.9
8,C=CC(=O)Nc1ccccn1,3.17
9,C=CC(=O)Nc1cc(C)nn1C1CC2CCC1C2 (stereo not shown),6.66
10,C=CC(=O)N[C@@H]1C=C[C@H](CO)C1,8.28
11,C1COC(COCC2CO2)C1 (stereo not shown),10.2
12,C=CC(=O)N1CC(C)Cc2cc(OC)c(OC)cc2C1C (stereo not shown),6.08
13,N#CC(=Cc1ccc(O)c(O)c1)c1ccccn1,3.18
14,C=CC(=O)N1CCOC(c2ccnn2C)C1 (stereo not shown),3.67
15,N#Cc1nc(NCCc2nccs2)ccc1Cl,5.62
16,C=CC(=O)NCC(=O)N1CCCc2ccccc21,5.12
17,Cn1cc(CNS(=O)(=O)C=Cc2ccc(Cl)cc2)cn1,7.5
18,C=CC(=O)NC1(c2cccc(F)c2)CCOCC1,10.3
19,CCCC(=O)NCC1CCCN(c2ccnc(C#N)c2)C1 (stereo not shown),15.2
20,C=CC(=O)N1CCOC(Cn2nc(C)cc2C)C1 (stereo not shown),14.2
21,CC(C)OCCn1cnc(C#N)n1,2.25
22,C=CC(=O)NCc1ccc(CN2CCCCCC2)cc1,13.2
23,C=CC(=O)Nc1ccc2c(c1)CCNC2=O,11.8
24,C=CC(=O)NC1C2Cc3ccccc3C21 (stereo not shown),11.1
25,C=CC(=O)NC1CCC(C)(N2CCC2)CC1 (stereo not shown),12.2

row,SMILES,Inhibition % [%]
1,C=CC(=O)N1CCC2(C1)CC2(F)F (stereo not shown),5.02
2,O=C(O)C1CCN(C(=O)C=Cc2ccc(Cl)s2)CC1,6.86
3,C=CC(=O)N1CCC(Oc2ccc(C(=O)O)cc2)CC1,2.71
4,CCOc1cc(S(=O)(=O)n2nc(C)cc2C)ccc1Cl,-1.43
5,C=CC(=O)N1CCC(NC(=O)c2cc(C)on2)CC1,7.51
6,C=CC(=O)N1CCN(CC)C(=O)C1(C)C,2.96
7,C=CC(=O)NC1CCCN(c2ccc(F)cc2C)C1 (stereo not shown),6.65
8,CC(=O)Nc1ccc(S(=O)(=O)n2cnc(C)c2)cc1,8.75
9,CC1(C)OB(Cc2cccc(C#N)c2)OC1(C)C,6.42
10,Cc1cncc(B2OC(C)(C)C(C)(C)O2)c1,-0.814
11,CCCc1ccc(C(=O)Cn2cnc(C#N)n2)cc1,5.82
12,Cn1cc(C=CC(=O)N2CCOCC2)c(=O)n(C)c1=O,-4.33
13,C=CC(=O)N[C@@H]1CC=CC[C@H]1C(F)(F)F (racemic),7.37
14,COc1ccc(Oc2ccc(C#N)nc2)cc1,7.28
15,O=C(CCl)NNC(=O)c1ccc([N+](=O)[O-])cc1,6.49
16,C=CC(=O)NC1CCS(=O)(=O)c2ccccc21 (stereo not shown),16
17,Cc1ccc2cc(C=C(C#N)C(N)=O)c(N(C)C)nc2c1,7.3
18,COc1ccc(N2CCC2=O)cc1,4.44
19,O=C1OCCC1N1C(=O)c2ccccc2S1(=O)=O (stereo not shown),6.02
20,C=CC(=O)N1Cc2cccnc2C1,6.55
21,Cc1csc(-n2c(C)cc(C(=O)CCl)c2C)n1,51
22,O=C(CN1C(=O)CCC1=O)Nc1ccc(Cl)cc1Cl,-4.28
23,C=CC(=O)NC(=O)NCc1ccccc1,10.3
24,C=CC(=O)NC(c1ccc(F)cc1)c1cnn(C)c1 (stereo not shown),7.71
25,C=CC(=O)N(CC)C1CCCCC1C (stereo not shown),15.8

row,SMILES,Inhibition % [%]
1,CC(C1CC1)N(CC(F)(F)F)C(=O)CCl (stereo not shown),6.2
2,CC1(C)OB(c2cccc(F)c2C#N)OC1(C)C,3.89
3,N#Cc1cccc(N2C[C@@H](C(F)(F)F)[C@H](C(N)=O)C2)n1,3.22
4,C=CC(=O)N1CCCCC1c1ccc(CC)o1 (stereo not shown),17.6
5,O=c1c2sccc2nc(S)n1CCCN1CCOCC1,1.46
6,Cc1ccc(Nc2cccc(C#N)n2)nc1,3.72
7,CNC(=O)C(C)(C)CNC(=O)c1cccnc1S,7.07
8,O=S(=O)(F)c1ccc(-n2cccc2)cc1,6.46
9,O=C(CCl)Nc1ccc(Cl)cn1,11.3
10,C=CC(=O)Nc1ccc(OC)cc1[N+](=O)[O-],4.38
11,COc1ccc(C(=O)NC(=O)CCl)cc1,44.6
12,O=S(=O)(C=Cc1ccccc1)NCCc1ccccn1,7.09
13,O=c1[nH]c(-c2cccc(S(=O)(=O)F)c2)nc2sc3c(c12)CCC3,88.5
14,COc1c(Cl)cc(Cl)cc1C=C(C#N)C(N)=O,6.75
15,CC1CC(N)CCN1C(=O)C=Cc1cc2ccccc2o1 (stereo not shown),2.68
16,C=CC(=O)N1CCCNC(=O)C1CC(C)C (stereo not shown),6.41
17,O=C1CCC(=O)N1CCSc1nccn1C1CC1,6.45
18,O=C1OCCC1Sc1nc2ccccc2c(=O)[nH]1 (stereo not shown),4.69
19,CC1(C)OB(c2cccc(C(F)(F)F)c2O)OC1(C)C,0.0918
20,CS(=O)(=O)OCC1CCCN1.Cl (stereo not shown),-4.21
21,C=CC(=O)NCc1nsc2ccccc12,2.25
22,COc1cc2c(cc1NC(=O)CCl)oc1ccccc12,4.67
23,C=CC(=O)N1CCCC1c1nc(C)cs1 (stereo not shown),10.9
24,C=CC(=O)NCC1(c2ccccc2F)CC1,6.09
25,C=CC(=O)N1CC(n2cncn2)C1,1.87

row,SMILES,Inhibition % [%]
1,C=CC(=O)N(CC)CC(=O)N1CC(C)N(C)CC1C (stereo not shown),1.97
2,C=CC(=O)N1CCC(C)(c2ccccc2)CC1,11.5
3,CC(NC(=O)CCl)c1ccccc1Cl (stereo not shown),11.5
4,N#Cc1nc(C2CC2)oc1N1CCN(C(=O)C2CC2)CC1,5.36
5,C1CC2(CCS1)CO2,3.21
6,C=CC(=O)N(C1CC1)C1CC(=O)NC1=O (stereo not shown),9.14
7,C=CC(=O)N1CCC(c2c(C(=O)O)nnn2C)CC1,5.22
8,OB(O)c1ccc(-n2nccc2C2CC2)cc1,-0.314
9,COc1ccc(C)cc1S(=O)(=O)n1ccnc1C,6.27
10,C=CC(=O)NC1CC(NC(=O)C2CCC2)C1 (stereo not shown),7.98
11,Cn1ncc(CNC(=O)OC(C)(C)C)c1B1OC(C)(C)C(C)(C)O1,7.89
12,O=c1[nH]nc(C2CCCN(Cc3cccc(F)c3F)C2)o1 (stereo not shown),-0.557
13,ClCC1COc2ccccc2O1 (stereo not shown),4.9
14,CC1(C)OB(c2ccc(OC(F)F)cc2F)OC1(C)C,3.12
15,N#CC(=Cc1ccccc1)C(=O)Nc1nncs1,3.58
16,Cc1cc(C(=O)CCl)c(C)n1C(C)C,96.9
17,N#Cc1ncn(CCC(=O)Nc2ccccc2F)n1,5.17
18,C=CC(=O)NCC1CCSC1 (stereo not shown),5.45
19,C=CC(=O)N1CCN(C(=O)c2cc(C)no2)CC1,5.39
20,C=CC(=O)NCc1ncc(C)o1,7.34
21,C=CC(=O)NC1CCOCC1,3.08
22,Cc1cc(C)c(C(N)=O)c(S)n1,11
23,C=CC(=O)Nc1ncccn1,5.18
24,N#Cc1c(F)cccc1N1CCCC(C2OCCO2)C1 (stereo not shown),12
